Data reported in paper PMC6797615, “Hydrogen Sulfide From Cysteine Desulfurase, Not 3-Mercaptopyruvate Sulfurtransferase, Contributes to Sustaining Cell Growth and Bioenergetics in E. coli Under Anaerobic Conditions” (Frontiers in Microbiology, 2019).

Substrate: N[C@@H](CS)C(=O)O
Assay: purified protein
Format: biochemical, Escherichia coli
Details: pH 8.0, 1 mM DTT, 37 °C, 50 mM Tris, 0.4 mM Pb(NO3)2

B1: IscS (cysteine desulfurase) (Escherichia coli K-12) (protein)
chain: MKLPIYLDYSATTPVDPRVAEKMMQFMTMDGTFGNPASRSHRFGWQAEEAVDIARNQIADLVGADPREIVFTSGATESDNLAIKGAANFYQKKGKHIITSKTEHKAVLDTCRQLEREGFEVTYLAPQRNGIIDLKELEAAMRDDTILVSIMHVNNEIGVVQDIAAIGEMCRARGIIYHVDATQSVGKLPIDLSQLKVDLMSFSGHKIYGPKGIGALYVRRKPRVRIEAQMHGGGHERGMRSGTLPVHQIVGMGEAYRIAKEEMATEMERLRGLRNRLWNGIKDIEEVYLNGDLEHGAPNILNVSFNYVEGESLIMALKDLAVSSGSACTSASLEPSYVLRALGLNDELAHSSIRFSLGRFTTEEEIDYTIELVRKSIGRLRDLSPLWEMYKQGVDLNSIEWAHH
notes: iscS gene in pET-28a (BamHI/XhoI), expressed in E. coli BL21(DE3) pLysS, HisTrap purified; tag removal not mentioned; PLP enzyme
Km: 800 ± 50 µM
